Results as given in US10729694B2 (AI Therapeutics, Inc., priority 2015, dated 2020).

Test system: CYP3A4, CYP1A2, CYP2D6
Details: human

In the case of Cc1cccc(/C=N/Nc2cc(N3CCOCC3)nc(OCCc3ccccn3)n2)c1 [apilimod], the “enzymes contributing to metabolism” value is reported as “CYP3A4 and to a lesser extent CYP1A2 and/or CYP2D6, contribute to metabolism”.
